Results on 1 compound are retold here after patent publication US20230414599A1, “NICOTINAMIDE, NICOTINAMIDE PRECURSORS AND NICOTINAMIDE METABOLITES AND COMPOSITIONS THEREOF FOR REDUCING THE TIME TO RESOLUTION OF SYMPTOMS IN PATIENTS WITH COVID-19 AND OTHER VIRAL INFECTIONS” (CONARIS RESEARCH INSTITUTE AG, priority 2020, published 2023).

The assay deals with COVID-19.

Read-outs that look alike come from different tables or passages of the source.

In the case of `NC(=O)c1cccnc1` [Nicotinamide, nicotinamide], the “Change in fatigue: constant, %” value (patients with cough, fever and taste loss, n = 6, week 4 compared to baseline) is given as 16.67%; the “Change in fatigue: constant, %” value (patients with cough, fever and taste loss, n = 6, week 6 compared to baseline) amounted to 33.33%; the “Change in fatigue: constant, %” value (patients with fever and taste loss, n = 8, week 4 compared to baseline) came out at 12.50%; the “Change in fatigue: constant, %” value (patients with fever and taste loss, n = 8, week 6 compared to baseline) worked out at 25.00%.
